# Assay results as given in the supplement of paper PMC11181314.
# This is one part of the list. Single values of this set are uncertain.
# Test system: U2OS
# Assay: Cell Painting induction (percent of morphological features significantly changed vs DMSO); higher = stronger morphological change
# Conditions: 10 µM, 20 h
# Method: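 Cell Painting assay in U2OS cells: compounds at 10 µM for 20 h, six dyes, 579 robust CellProfiler features as Z-scores vs DMSO median (MAD). Induction is the % of significantly changed features (active if ≥5%); relative cell count is in % of DMSO. The primary run holds DCM compounds preselected for induction ≥10%; the confirmation repeat defines active compounds (370 of 549). Replicate agreement is low, attributed to precipitation.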
# [1] = run: primary screen (compounds selected for induction >=10%)
# 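Note: stains mark DNA, RNA and nucleoli, ER, actin, Golgi, plasma membrane and mitochondria, read by high-content imaging, with DMSO controls at matching solvent concentration.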
Structure (SMILES),Cell Painting induction (run: confirmation repeat),Cell Painting induction [1] [%]
COc1ccc2c(c1)CCc1c(C(=O)NCc3ccc(Cl)cc3)noc1-2,active: 12.3%,36.6
COc1ccc(S(=O)(=O)Nc2cc3[nH]c(=O)oc3cc2C)cc1,active: 9.2%,12.1
CCN(C(=O)c1cc2c(O)nc3ccc(C)cc3c2s1)c1ccc(OC)cc1,active: 13%,46.8
CCCCSCCCNC(=O)c1ccc(CNS(=O)(=O)c2ccc(F)cc2)cc1,active: 43.2%,38.2
Cc1cc2c(cc3c(=O)n(CC(=O)NCCCN4CC(C)CC(C)C4)ncn32)s1 (stereo not drawn),inactive: 0.7%,14.7
O=C(NCCN1CCC(Cc2ccccc2)CC1)C1CCN(S(=O)(=O)N2CCC3(CC2)OCCO3)CC1,active: 10.4%,22.3
COc1ccc(CN(C(=O)c2oc3cc(C)ccc3c2C)C2CCS(=O)(=O)C2)cc1OC (stereo not drawn),inactive: 3.6%,12.6
COc1ccc(CCn2c(=O)[nH]c3cc(C(=O)N4CCN(c5ccccc5)CC4)ccc3c2=O)cc1OC,active: 21.2%,16.2
Brc1ccc(-c2nnc3sc(CN4CCc5ccccc5C4)cn23)cc1,inactive: 0.3%,36.1
CCCCN(CCCC)CC(O)CN(c1ccccc1)S(=O)(=O)c1ccc(C)cc1 (stereo not drawn),active: 55.4%,43.5
COC(=O)C1=C(C)NC(=O)/C1=C\c1cc(C)n(-c2ccccc2C)c1C,active: 13.8%,34.9
CCOc1cc(C(=O)Nc2cc3c(cc2N2CCOCC2)n(C)c(=O)n3C)cc(OCC)c1OCC,active: 12.1%,17.1
CC(C)(C)c1ccc(C(=O)Nc2ccccc2C(=O)NCCN2CCOCC2)cc1,active: 10%,26.3
Cc1ccc(C)c(Cn2nc3c4ccccc4n(Cc4ccccc4)cc-3c2=O)c1,inactive: 0.9%,21.4
CCCN(CCC)CCCNC(=O)C1c2cc(OC)c(OC)cc2C(=O)N(C)C1c1cccs1 (stereo not drawn),active: 16.8%,14.3
CCOC(=O)N1CCC(N(CCN(C)C)C(=S)Nc2cccc(Cl)c2C)CC1,active: 24%,33.2
Cc1ccc(C)c(N2CCN(CCCNC(=O)CCn3c(=O)c4cccn4c4cccnc43)CC2)c1,active: 29%,24.7

Structure (SMILES),Cell Painting induction (run: confirmation repeat),Cell Painting induction [1] [%]
CCOC(=O)C1CCCN(C(=O)C2CCN(S(=O)(=O)c3c(C)noc3/C=C/c3ccccc3F)CC2)C1 (stereo not drawn),active: 46.6%,43.2
CCOCCn1c(=O)c2c(nc3n2CCN3c2ccc(CC)cc2)n(C)c1=O,inactive: 1%,16.1
CC(C)c1ccc(NC(=O)c2cc(S(=O)(=O)N3CCN(c4ccccc4)CC3)ccc2F)cc1,active: 13.6%,16.4
COc1ccc(NC2=CC(c3ccc(OC)c(OC)c3)N(c3ccc(OC)cc3)C2=O)cc1 (stereo not drawn),inactive: 1.6%,12.1
CCOC(=O)c1cc(-c2ccccc2)n(CCC(=O)N2CCN(c3ccccc3OC)CC2)c1C,active: 31.4%,25.7
CCN(CC)S(=O)(=O)c1cccc(-c2nnc(-c3ccc(C)cc3)o2)c1,inactive: 0.2%,22.1
CCOC(=O)c1ccc(NC(=O)c2cnn(-c3ccccc3)c2C2CCNCC2)cc1,active: 16.8%,18.7
CCOc1ccc(-n2c(C)nc3c(cnn3-c3ccc(Cl)cc3)c2=O)cc1,inactive: 0.2%,12.6
COc1ccc(-c2noc(N3CCC(C(=O)Nc4cc(OC)c(OC)c(OC)c4)CC3)n2)cc1,active: 14.3%,24.2
Cc1ccc(-c2nn(-c3cccc(Cl)c3)c3c2cnc2ccccc23)cc1,inactive: 0.5%,19.3
Cc1ccc(-c2nc(S(=O)(=O)c3ccccc3)c(SCC(=O)NCC3CCCO3)o2)cc1 (stereo not drawn),active: 12.6%,29.9
CCOC(=O)C1C(c2ccccc2)C(=C(\O)OCC)/C(=N/c2ccc(Br)cc2)CC1(C)O (stereo not drawn),inactive: 2.8%,11.9
Cc1ccc(C(=O)NNC(=O)C2CCN(C(=O)OC(C)(C)C)CC2)cc1,inactive: 4.8%,10.2
Cc1cccc(CN2C(=O)c3ccccc3Sc3ccc(C(=O)NCCCN4CCOCC4)cc32)c1,inactive: 3.5%,18.8
COc1ccc(-c2noc(N3CCC(C(=O)NCCCN4CCC(C)CC4)CC3)n2)cc1,inactive: 2.2%,25.9
Cc1cccc(C)c1NC(=O)C1(N(Cc2ccco2)C(=O)Cn2nnnc2N)CCCCC1,active: 15%,19.3
CCc1ccc(NC(=O)c2cc(S(=O)(=O)N3CCCC3)ccc2F)cc1,inactive: 4.5%,11.2
